Experimental data: publication PMC13575168
These are yes or no findings as the source states them, for the method shown. For part of these data: In cells and extracts the contact can be indirect. Some results given as binding are weak or reduced against the parent protein; the word gives no strength. For part of these data: Tags and fused reporters may be left off the sequences shown.

What was measured:
[1] = biological target: T1, human CLCC1 with a C-terminal Strep-FLAG-Strep tag (human) (UniProt Q96S66); assay: co-IP
T1 sequence: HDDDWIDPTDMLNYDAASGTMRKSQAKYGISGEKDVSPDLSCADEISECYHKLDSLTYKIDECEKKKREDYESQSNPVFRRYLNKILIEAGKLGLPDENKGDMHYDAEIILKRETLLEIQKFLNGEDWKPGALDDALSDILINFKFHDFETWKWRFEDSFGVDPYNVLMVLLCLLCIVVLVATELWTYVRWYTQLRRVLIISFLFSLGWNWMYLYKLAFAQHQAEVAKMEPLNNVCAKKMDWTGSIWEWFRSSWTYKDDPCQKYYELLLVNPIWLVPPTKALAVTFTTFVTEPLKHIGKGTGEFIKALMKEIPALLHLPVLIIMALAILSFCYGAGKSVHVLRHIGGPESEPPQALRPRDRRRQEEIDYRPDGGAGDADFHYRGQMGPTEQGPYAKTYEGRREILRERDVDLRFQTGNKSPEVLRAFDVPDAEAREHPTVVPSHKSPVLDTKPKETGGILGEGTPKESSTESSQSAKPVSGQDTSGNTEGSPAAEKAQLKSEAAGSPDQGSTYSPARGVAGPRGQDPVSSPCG

[2] = biological target: Danio rerio Clcc1 with a C-terminal Strep-FLAG-Strep tag (Danio rerio); assay: co-IP
[3] = biological target: T2, Myc-tagged human CLCC1 (human) (UniProt Q96S66); assay: co-IP
T2 sequence: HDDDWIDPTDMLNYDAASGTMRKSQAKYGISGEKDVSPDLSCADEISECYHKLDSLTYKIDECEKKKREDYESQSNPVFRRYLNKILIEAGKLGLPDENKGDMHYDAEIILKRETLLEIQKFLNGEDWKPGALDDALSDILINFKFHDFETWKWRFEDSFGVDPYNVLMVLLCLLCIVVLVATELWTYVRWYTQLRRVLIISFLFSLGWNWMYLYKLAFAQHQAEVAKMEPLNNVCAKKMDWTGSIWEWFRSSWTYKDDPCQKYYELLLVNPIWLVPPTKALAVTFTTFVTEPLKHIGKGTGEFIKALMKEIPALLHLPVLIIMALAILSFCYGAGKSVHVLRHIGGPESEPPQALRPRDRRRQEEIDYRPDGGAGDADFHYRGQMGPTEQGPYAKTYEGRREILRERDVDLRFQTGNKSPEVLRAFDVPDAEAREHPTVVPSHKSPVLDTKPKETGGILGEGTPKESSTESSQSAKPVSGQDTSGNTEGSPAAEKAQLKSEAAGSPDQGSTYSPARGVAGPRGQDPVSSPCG

[4] = biological target: SARS-CoV-2 ORF3a expressed from trVLP infection (SARS-CoV-2) (UniProt P0DTC3); assay: co-IP
[5] = biological target: FLAG-tagged SARS-CoV-2 ORF3a (SARS-CoV-2) (UniProt P0DTC3); assay: co-IP
[6] = biological target: FLAG-tagged BtCoV HKU3 ORF3a (bat coronavirus BtCoV HKU3-1) (UniProt Q3LZX0); assay: co-IP
[7] = biological target: EGFP-tagged SARS-CoV-2 ORF3a expressed in mouse brain (SARS-CoV-2) (UniProt P0DTC3); assay: co-IP
[8] = biological target: GFP-tagged SARS-CoV-2 ORF3a (SARS-CoV-2) (UniProt P0DTC3); assay: pull-down; both purified

Molecule: GFP-tagged SARS-CoV-2 ORF3a (from UniProt P0DTC3 1-275)
- binding [1]: binds
- binding [2]: no binding

Molecule: FLAG-tagged SARS-CoV-2 ORF3a (from UniProt P0DTC3 1-275)
- binding [1]: binds
- binding [3]: binds

B1: endogenous CLCC1 of Caco-2 cells (protein, UniProt Q96S66 19-551)
chain: HDDDWIDPTDMLNYDAASGTMRKSQAKYGISGEKDVSPDLSCADEISECYHKLDSLTYKIDECEKKKREDYESQSNPVFRRYLNKILIEAGKLGLPDENKGDMHYDAEIILKRETLLEIQKFLNGEDWKPGALDDALSDILINFKFHDFETWKWRFEDSFGVDPYNVLMVLLCLLCIVVLVATELWTYVRWYTQLRRVLIISFLFSLGWNWMYLYKLAFAQHQAEVAKMEPLNNVCAKKMDWTGSIWEWFRSSWTYKDDPCQKYYELLLVNPIWLVPPTKALAVTFTTFVTEPLKHIGKGTGEFIKALMKEIPALLHLPVLIIMALAILSFCYGAGKSVHVLRHIGGPESEPPQALRPRDRRRQEEIDYRPDGGAGDADFHYRGQMGPTEQGPYAKTYEGRREILRERDVDLRFQTGNKSPEVLRAFDVPDAEAREHPTVVPSHKSPVLDTKPKETGGILGEGTPKESSTESSQSAKPVSGQDTSGNTEGSPAAEKAQLKSEAAGSPDQGSTYSPARGVAGPRGQDPVSSPCG
- binding [4]: binds

B2: endogenous CLCC1 of 293FT cells (protein, UniProt Q96S66 19-551)
chain: HDDDWIDPTDMLNYDAASGTMRKSQAKYGISGEKDVSPDLSCADEISECYHKLDSLTYKIDECEKKKREDYESQSNPVFRRYLNKILIEAGKLGLPDENKGDMHYDAEIILKRETLLEIQKFLNGEDWKPGALDDALSDILINFKFHDFETWKWRFEDSFGVDPYNVLMVLLCLLCIVVLVATELWTYVRWYTQLRRVLIISFLFSLGWNWMYLYKLAFAQHQAEVAKMEPLNNVCAKKMDWTGSIWEWFRSSWTYKDDPCQKYYELLLVNPIWLVPPTKALAVTFTTFVTEPLKHIGKGTGEFIKALMKEIPALLHLPVLIIMALAILSFCYGAGKSVHVLRHIGGPESEPPQALRPRDRRRQEEIDYRPDGGAGDADFHYRGQMGPTEQGPYAKTYEGRREILRERDVDLRFQTGNKSPEVLRAFDVPDAEAREHPTVVPSHKSPVLDTKPKETGGILGEGTPKESSTESSQSAKPVSGQDTSGNTEGSPAAEKAQLKSEAAGSPDQGSTYSPARGVAGPRGQDPVSSPCG
- binding [5]: binds
- binding [6]: binds

B3: endogenous CLCC1 of mouse brain (protein, UniProt Q99LI2 19-539)
chain: HDDDWIDPTDMLNYDAASGTMRKSQVRSGTSEKKEVSPDSSEAEELSDCLHRLDSLTHKVDSCEKKKMKDYESQSNPVFRRYLNKILIEAGKLGLPDENKVEMRYDAEILLSRQTLLEIQKFLSGEEWKPGALDDALSDILINFKCHDSEAWKWQFEDYFGVDPYNVFMVLLCLLCLVVLVATELWTYVRWYTQMKRIFIISFLLSLAWNWIYLYKMAFAQHQANIAGMEPFDNLCAKKMDWTGSLWEWFTSSWTYKDDPCQKYYELLIVNPIWLVPPTKALAITFTNFVTEPLKHIGKGAGEFIKALMKEIPVLLQIPVLAILALAVLSFCYGAGRSVPMLRHFGGPDREPPRALEPDDRRRQKGLDYRLHGGAGDADFSYRGPAGSIEQGPYDKMHASKRDALRQRFHSGNKSPEVLRAFDLPDTEAQEHPEVVPSHKSPIMNTNLETGELPGESTPTEYSQSAKDVSGQVPSAGKSSPTVDKAQLKTDSECSPPGGCPPSKEAAVAAHGTEPVSSPCG
- binding [7]: binds

B4: His10-tagged recombinant CLCC1 (protein, UniProt Q96S66 19-551)
chain: HDDDWIDPTDMLNYDAASGTMRKSQAKYGISGEKDVSPDLSCADEISECYHKLDSLTYKIDECEKKKREDYESQSNPVFRRYLNKILIEAGKLGLPDENKGDMHYDAEIILKRETLLEIQKFLNGEDWKPGALDDALSDILINFKFHDFETWKWRFEDSFGVDPYNVLMVLLCLLCIVVLVATELWTYVRWYTQLRRVLIISFLFSLGWNWMYLYKLAFAQHQAEVAKMEPLNNVCAKKMDWTGSIWEWFRSSWTYKDDPCQKYYELLLVNPIWLVPPTKALAVTFTTFVTEPLKHIGKGTGEFIKALMKEIPALLHLPVLIIMALAILSFCYGAGKSVHVLRHIGGPESEPPQALRPRDRRRQEEIDYRPDGGAGDADFHYRGQMGPTEQGPYAKTYEGRREILRERDVDLRFQTGNKSPEVLRAFDVPDAEAREHPTVVPSHKSPVLDTKPKETGGILGEGTPKESSTESSQSAKPVSGQDTSGNTEGSPAAEKAQLKSEAAGSPDQGSTYSPARGVAGPRGQDPVSSPCG
- binding [8]: binds
